# Source: PubChem BioAssay AID1347043 (National Center for Advancing Translational Sciences (NCATS), 2019)
# In all, about 76,000 compounds went through this assay and about 1,900 (2.5%) were called active. The shares of active, inactive and inconclusive entries below differ from those in the screen. Calls come from the whole dose curve; as a rule, active = well fitted inhibition curve with a large enough effect; inconclusive = small, poorly fitted or top-dose-only effect; inactive = flat fitted curve, though single readings scatter. Potencies of inconclusive entries are doubtful fits and often do not repeat.
# Target: Luciferin 4-monooxygenase (Photinus pyralis) (UniProt P08659)
# Chain of UniProt P08659 (P08659 whole entry, looked up): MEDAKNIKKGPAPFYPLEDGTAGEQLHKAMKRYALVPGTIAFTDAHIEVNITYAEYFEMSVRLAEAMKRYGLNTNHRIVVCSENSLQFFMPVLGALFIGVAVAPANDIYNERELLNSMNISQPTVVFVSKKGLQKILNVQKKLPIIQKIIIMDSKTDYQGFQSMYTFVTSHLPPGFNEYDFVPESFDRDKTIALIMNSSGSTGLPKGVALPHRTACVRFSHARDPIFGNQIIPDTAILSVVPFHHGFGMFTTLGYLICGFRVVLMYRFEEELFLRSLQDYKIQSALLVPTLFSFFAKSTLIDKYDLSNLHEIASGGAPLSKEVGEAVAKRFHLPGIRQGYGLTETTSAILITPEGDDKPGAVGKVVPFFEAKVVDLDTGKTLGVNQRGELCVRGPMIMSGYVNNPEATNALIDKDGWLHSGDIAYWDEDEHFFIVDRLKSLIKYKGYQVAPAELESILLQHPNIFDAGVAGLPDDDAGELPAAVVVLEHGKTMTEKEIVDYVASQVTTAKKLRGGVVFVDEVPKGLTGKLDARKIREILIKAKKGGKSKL
# Experiment: Firefly luciferase inhibition profiling of diverse chemical library using quantitative high-throughput screening; note: nearly all actives have a fitted effect of over 65% in size
# Conditions: purified P. pyralis luciferase, luminescence, biochemical; series mostly up to 115 µM
# Method in brief: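 Inhibitors were tested against purified firefly luciferase in a biochemical, low-substrate format (both substrates at 10uM) and luminescence measured with a CCD imager.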
# Potency is the fitted concentration of half-maximal effect; tags give direction and shape of the fitted curve.
row,Structure (SMILES),Potency
1,COc1ccc(C)cc1NC(=O)Nc1cccc(-c2ccc(N3CCCCC3)nn2)c1,active: 0.282 µM
2,O=C(c1ccsc1)N1CC(Oc2ccc(-c3nc(-c4ccccc4)no3)cc2)C1,active: 28.2 µM
3,CC(=O)NC1(C)CCCN(Cc2cc(-c3cccc(C(F)(F)F)c3)cs2)C1 (stereo not given),"inconclusive: 79.4 µM [inhibitor, partial curve]"
4,O=C(NCCCO)C1CC(=O)N(c2n[nH]c3cc(Br)ccc23)C1 (stereo not given),"inconclusive: 39.8 µM [inhibitor, partial curve]"
5,O=C(CCCc1ccccc1)N1CCC(C2CCNC2)CC1 (stereo not given),active: 35.5 µM
6,CN(C(=O)c1ccc2oc(CCc3ccccc3)nc2c1)C1CCOC1 (stereo not given),"inconclusive: 35.5 µM [inhibitor, partial curve]"
7,CN1C(=O)Cc2cc(C(=O)NC3CCCCCC3)ccc21,"inconclusive: 44.7 µM [inhibitor, partial curve]"
8,O=C1OC[C@@H]2CCN(Cc3ccccc3Cl)Cc3ccc(F)cc3N12,inactive
9,COc1ccc(C(=O)N2CC(Oc3ccccc3-c3nc(-c4ccccc4)no3)C2)cc1,"inconclusive: 20 µM [inhibitor, full curve]"
10,CC(C)c1ccc(NC(=O)c2ccc3c(c2)N(C)C2CCCN2C3=O)cc1 (stereo not given),active: 15.8 µM
11,O[C@@H]1C[C@@H](c2nc(-c3ccccc3)no2)N(Cc2ccncc2)C1,"inconclusive: 63.1 µM [inhibitor, full curve]"
12,Clc1ccccc1Cc1nc(-c2ccc(OC3CCNC3)cc2)no1 (stereo not given),"inconclusive: 39.8 µM [inhibitor, partial curve]"
13,COc1ccc(NC(=O)Nc2ccc(C)n(CC(=O)N3CCCC(C)C3)c2=O)cc1 (stereo not given),active: 7.08 µM
14,Cc1ccc(-c2noc([C@@H]3C[C@@H](O)CN3C3CCCCC3)n2)cc1F,active: 50.1 µM
15,Cc1ccc(C2Cn3nnc(C(=O)N4CCC(C(=O)NCC5CC5)CC4)c3CO2)cc1 (stereo not given),active: 25.1 µM
16,c1coc(-c2nc(CNC3CCC4(CCNCC4)CC3)no2)c1,"inconclusive: 79.4 µM [inhibitor, single point]"
17,COc1ccccc1C(C)N(C)C(=O)c1csc2nc(-c3ccccc3C)cn12 (stereo not given),"inconclusive: 50.1 µM [inhibitor, partial curve]"
18,CC(C)c1ccc(CC(=O)N2CCCc3ncc(C(=O)NCCCn4ccnc4)cc32)cc1,inactive
19,COc1cccc(-c2cc3c(=O)n(CCNC(=O)c4ccccc4F)ccn3n2)c1,"inconclusive: 8.91 µM [inhibitor, full curve]"
20,COc1ccc(-c2nn(-c3ccccc3)cc2CN2CCN(C)CC2)c(F)c1,"inconclusive: 50.1 µM [inhibitor, partial curve]"
21,O=C(O)CCC1CCN(c2cc(NC3CC3)ncn2)CC1,active: 5.01 µM
22,CC(=O)N1CCC(C(=O)NC[C@@H]2C=C(C)[C@H](CC(=O)N(C)Cc3ccccc3)C[C@H]2C(C)C)CC1,"inconclusive: 100 µM [inhibitor, partial curve, poor fit]"
23,O=C(NC1CCCN(c2cc(-c3ccc(F)cc3)[nH]n2)C1)c1ccc2nc[nH]c2c1 (stereo not given),active: 15.8 µM
24,CCN(CC1CCOCC1)C(=O)c1cccnc1SC/C=C/c1ccccc1,active: 11.2 µM

row,Structure (SMILES),Potency
1,Cc1ccsc1C(=O)N1CCC(n2cc(-c3nc(-c4ccccc4)no3)nn2)C1 (stereo not given),"inconclusive: 50.1 µM [inhibitor, partial curve]"
2,CN1CCCCC(CC(=O)N2CCCc3ccccc32)C1=O (stereo not given),"inconclusive: 39.8 µM [inhibitor, partial curve]"
3,F[C@@H]1CN(Cc2nccs2)C[C@@H]1OCc1nc2ccccc2o1,"inconclusive: 112 µM [inhibitor, partial curve, poor fit]"
4,O=C(NCCC1CCCCC1)c1ccc2nccn2c1,"inconclusive: 50.1 µM [inhibitor, partial curve]"
5,Cc1csc(NC(=O)c2cnc3c(c2)N([S+](=O)([O-])c2cccnc2)CCC3)n1,inactive
6,CN(C)C(C(=O)N1CCC(OCc2cccnc2)CC1)c1cccc(F)c1 (stereo not given),inactive
7,COCCN1C(=O)c2ccccc2C(C(=O)Nc2nnc(C3CC3)s2)C12CCCC2 (stereo not given),inactive
8,COc1ccccc1NC(=O)N1CC(C(=O)NCC2CC2)CC(c2ccccc2)C1 (stereo not given),inactive
9,CC1=C[C@@H](CNC(=O)C2CCCCC2)[C@H](C(C)C)C[C@H]1Cc1nc2c(C)cccc2[nH]1,inactive
10,Cc1cccc(NC(=O)C2CCN(C(=O)c3ncn4c3COC(c3ccc(F)cc3)C4)CC2)c1C (stereo not given),"inconclusive: 39.8 µM [inhibitor, partial curve]"
11,CCOC(=O)c1cccc(NC(=O)c2ccc3c(c2)N(C)C2CCCCCN2C3=O)c1 (stereo not given),"inconclusive: 31.6 µM [inhibitor, partial curve]"
12,O=C(NCc1ccccn1)C1CCN(C(=O)c2ncn3c2COC(c2ccc(Cl)cc2)C3)CC1 (stereo not given),active: 31.6 µM
13,CCN(CCOC)Cc1cn(C)nc1-c1ccc(C2CCCCC2)cc1,"inconclusive: 50.1 µM [inhibitor, partial curve, poor fit]"
14,O=C(c1cccc(Cl)c1)N1CCCC(n2cc(-c3nc(-c4ccccc4)no3)nn2)C1 (stereo not given),"inconclusive: 100 µM [inhibitor, single point]"
15,O=C(N[C@H]1CCN2C(=O)c3cc(-c4ccc(F)cc4F)ccc3NC(=O)[C@H]12)c1cccc(F)c1,"inconclusive: 39.8 µM [inhibitor, partial curve]"
16,Cc1ccc(-c2nc(C(=O)NCc3cccc(C)c3)no2)cc1,"inconclusive: 28.2 µM [inhibitor, partial curve]"
17,FC(F)(F)c1ccnc(-c2cc(NCc3ccccn3)nc3[nH]ccc23)c1,"inconclusive: 56.2 µM [inhibitor, partial curve]"
18,Cn1cnc(S(=O)(=O)N2CCC(N(C(=O)C3CC3)C3CCOCC3)CC2)c1,inactive
19,CCOc1ccc(-c2cc3c(=O)n(CCNC(=O)c4ccccc4OC)ccn3n2)cc1,active: 15.8 µM
20,CN(C)c1cccc(C(=O)NC2CCCN(c3cc(-c4ccc(Cl)cc4)[nH]n3)C2)c1 (stereo not given),"inconclusive: 44.7 µM [inhibitor, partial curve]"
21,COc1cccc(NC(=O)c2ccc(CN3C(=O)NC4(CCOCC4)C3=O)cc2)c1,"inconclusive: 50.1 µM [inhibitor, partial curve]"
22,CC(C)c1cccc(-c2cc(NCc3ccccn3)nc3[nH]ccc23)n1,"inconclusive: 39.8 µM [inhibitor, partial curve]"
23,CCC1(C(=O)NCc2ccc(Cl)cc2)CCCCC(=O)N1 (stereo not given),inactive
24,O=C(CCc1nc2ccc(Cl)cc2[nH]1)N1CCc2nc3cc(-c4ccccc4)[nH]n3c(=O)c2C1,"inconclusive: 39.8 µM [inhibitor, partial curve]"

row,Structure (SMILES),Potency
1,Fc1ccc(C2Cn3cnc(-c4nc(-c5ccc6c(c5)OCO6)no4)c3CO2)cc1 (stereo not given),"inconclusive: 39.8 µM [inhibitor, partial curve]"
2,COCCc1noc(CC2CCOC3(CCN(C(=O)Nc4ccc5c(c4)OCCO5)CC3)C2)n1 (stereo not given),active: 35.5 µM
3,Cc1ccc(NC(=O)Cn2ccn3nc4c(c3c2=O)CC(C)CC4)cc1 (stereo not given),inactive
4,Cn1cc(-c2cccc(CO)c2)c2nc(COc3ccc(Cl)cc3)cn2c1=O,"inconclusive: 39.8 µM [inhibitor, partial curve]"
5,CC1Oc2ccc(NC(=O)c3cccs3)cc2CN(Cc2ccccc2)C1=O (stereo not given),inactive
6,CCc1ccc(CNC(=O)C2CCN(C(=O)c3ncn4c3COC(c3ccccc3)C4)CC2)cc1 (stereo not given),active: 35.5 µM
7,COc1ccc(-c2cc(C[C@H]3CNCC[C@H]3CC(=O)NC(C)(C)C)no2)cc1,"inconclusive: 79.4 µM [inhibitor, partial curve, poor fit]"
8,CC1(C(=O)NCCN2CCCCC2)CCCCC(=O)N1 (stereo not given),"inconclusive: 100 µM [inhibitor, single point]"
9,O=C(N[C@@H]1CN(C(=O)c2ccc3nc[nH]c3c2)CC[C@@H]1CO)C1CC1,"inconclusive: 63.1 µM [inhibitor, partial curve]"
10,O=C(Cc1cccc(Cl)c1)N1CCC2(C1)C(=O)N(CCc1ccccc1)c1ccccc12 (stereo not given),inactive
11,Cc1ccc(C2=NC3(CCN(C(=O)c4ccc5c(c4)OCO5)CC3)ON2)cc1,active: 35.5 µM
12,Cc1noc(C)c1-c1cc2c(cc(-c3ccccc3)n2C)c(-c2cnn(C)c2)n1,inactive
13,COc1ccc(C(=O)N2CCN(Cc3ccc(=O)n(C)c3)CC2)cc1F,active: 39.8 µM
14,O=C(Nc1cnc(-c2cccc(Cl)c2)nc1)c1ccc(F)cc1Cl,active: 11.2 µM
15,COCc1cc(C[C@@H]2C[C@H](NCc3cccnc3)C2(C)C)no1,inactive
16,CCOC(=O)C1CCN(C(=O)c2cccc3c2CCN3C(=O)Nc2ccccc2)CC1,active: 5.62 µM
17,COc1cccc(S(=O)(=O)N2CCOCCNC(=O)[C@@H]3CCC[C@@H]32)c1,inactive
18,CC(=O)NC1(C)CCCN(Cc2cc(-c3cccc(N4CCOCC4)c3)cs2)C1 (stereo not given),"inconclusive: 70.8 µM [inhibitor, partial curve]"
19,CCOC(=O)C1(Cc2ccc(OC)cc2)CCN(C(=O)CCc2ccccc2OC)CC1,"inconclusive: 44.7 µM [inhibitor, partial curve]"
20,O=C(c1ccc(-c2ccc(N3CCCCC3)nc2)cc1)N1CCOCC1,active: 35.5 µM
21,Cn1cc(-c2cc(=O)c3ccnc(NCc4ccc5c(c4)OCO5)c3o2)cn1,"inconclusive: 112 µM [inhibitor, single point]"
22,CSCC[C@@H]1NC(=O)c2cc(NC(=O)c3cccc4c3ccn4C)ccc2NC1=O,"inconclusive: 39.8 µM [inhibitor, partial curve]"
